Data: PubChem BioAssay AID1030 (National Center for Advancing Translational Sciences (NCATS), 2008)
Hit rate of the full screen: of about 220,000 compounds, about 16,000 (7.3%) were called active. The shares of active, inactive and inconclusive entries below differ from those in the screen. Calls follow the shape of the dose curve; as a rule, active = well fitted inhibition curve with a large enough effect (not every such curve was filed as active); inconclusive = small, poorly fitted or top-dose-only effect, or another doubt; inactive = no such curve, though single readings can be large or run the other way. No potency is given beside an inconclusive call; the fits are too rough.

Biological target: Aldehyde dehydrogenase 1A1 (Homo sapiens) (UniProt P00352)
Assay: qHTS Assay for Inhibitors of Aldehyde Dehydrogenase 1 (ALDH1A1);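 as to activity, negative = inhibition: plate controls were no enzyme wells and a reference inhibitor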
Conditions: Purified ALDH1A1, NADH fluorescence, propionaldehyde substrate; series mostly up to 75.3 µM; activity, negative = inhibition: at the top concentration
Potency is read from the fitted curve at half-maximal effect; tags tell the direction and shape of the fitted curve.

UniProt P00352, sequence (P00352 whole entry, looked up): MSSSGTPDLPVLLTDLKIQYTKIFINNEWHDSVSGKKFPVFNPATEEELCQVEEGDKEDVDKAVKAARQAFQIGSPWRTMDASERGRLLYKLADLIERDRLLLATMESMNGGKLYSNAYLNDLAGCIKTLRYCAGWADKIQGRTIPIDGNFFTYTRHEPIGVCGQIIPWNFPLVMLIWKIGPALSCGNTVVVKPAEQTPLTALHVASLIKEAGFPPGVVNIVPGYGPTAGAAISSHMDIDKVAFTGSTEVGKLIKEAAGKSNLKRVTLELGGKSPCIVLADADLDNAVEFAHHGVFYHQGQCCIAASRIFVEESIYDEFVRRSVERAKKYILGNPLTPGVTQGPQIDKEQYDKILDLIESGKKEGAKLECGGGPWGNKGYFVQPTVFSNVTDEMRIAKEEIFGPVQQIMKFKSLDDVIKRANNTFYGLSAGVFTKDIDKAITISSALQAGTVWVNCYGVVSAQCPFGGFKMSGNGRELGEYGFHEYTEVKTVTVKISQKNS

| Compound | Potency | activity, negative = inhibition |
| --- | --- | --- |
| O=C(c1ccco1)N1CCN(S(=O)(=O)c2ccc(F)cc2)CC1 | inconclusive [inhibitor, single point] | – |
| Cc1cccc(NCC(=O)NNC(=S)Nc2ccccc2)c1 | active: 14.1 µM | – |
| Cc1ccc(S(=O)(=O)NCC2CCC(C(=O)NCc3ccc4c(c3)OCO4)CC2)cc1 (stereo not given) | active: 7.08 µM | – |
| Cc1[nH]n(-c2ccccc2)c(=O)c1CCOC(=O)c1cccc(C(F)(F)F)c1 | – | inactive: 4.17% |
| COCCn1c(SCC(=O)N2CCCCC2)nc2cccnc21 | – | inactive: -5.64% |
| CC(C)n1c(=S)[nH]c2ccccc2c1=O | inconclusive [inhibitor, single point] | – |
| COc1ccccc1NC(=S)NCCSc1ccc(C)cc1 | inconclusive [inhibitor, single point] | – |
| OC1(c2cccc(C(F)(F)F)c2)CCN(c2ncnc3c2[nH]c2ccc(F)cc23)CC1 | inconclusive [inhibitor, partial curve] | – |
| Fc1ccc(N2N=C(c3cccs3)CC2c2ccco2)c(F)c1 (stereo not given) | inconclusive [inhibitor, partial curve] | – |
| CC1(C)CC(=O)C(C=Nc2ccc(O)cc2)=C(O)C1 | inconclusive [inhibitor, partial curve] | – |
| COc1ccc(-n2cc(-c3ccccc3)[n+]3c2CCCCC3)cc1 | – | inactive: 7.11% |
| CC(=O)NC(=S)NNC(=O)C(c1ccccc1)c1ccccc1 | inconclusive [inhibitor, single point] | – |
| CCOC(=O)Cn1c(=NC(=O)CSC(C)=O)sc2cc(OC)ccc21 | inconclusive [inhibitor, partial curve] | – |
| O=C(CSc1ccc(-c2ccco2)nn1)NC1CCCC1 | active: 35.5 µM | – |
| COc1ccc(CN(C(=O)c2nsc(Cl)c2Cl)C(C(=O)NC2CCCC2)c2ccc(C)cc2)cc1 (stereo not given) | active: 12.6 µM | – |
| COc1ccc(C(C)=O)cc1COC(=O)CNC(=O)c1ccc(F)cc1 | inconclusive [inhibitor, single point] | – |
| O=C(Cc1cccc2ccccc12)OCn1nnc2ccccc2c1=O | – | inactive: -3.48% |
| CCCC(=O)N(Cc1cc2ccccc2[nH]c1=O)c1ccccc1OC | inconclusive [inhibitor, single point] | – |
| CCOC(=O)c1cc(NC(=O)N(C(C)C)C(C)C)c(C)nc1C | – | inactive: -9.68% |
| CC1CCC2C(=O)N(c3ccccc3OC(=O)c3ccccc3F)C(=O)C2C1 (stereo not given) | – | inactive: 2.69% |
| Cc1ccc(-c2nnn(CC(=O)N(CC(=O)NC3CCCC3)c3cnc4ccccc4c3)n2)o1 | inconclusive [inhibitor, single point] | – |
| COc1ccc(C(C(=O)NCc2ccccc2)N(Cc2ccc3c(c2)OCO3)C(=O)c2cnccn2)cc1 (stereo not given) | – | inactive: -13.1% |
| O=C(CN1C(=O)S/C(=C\C=C\c2ccccc2)C1=O)Nc1ccc(C(=O)O)cc1 | active: 12.6 µM | – |
| Cc1cc(C2=CC(C)(c3cc(C)oc3C)Nc3nc(C(F)(F)F)nn32)c(C)o1 (stereo not given) | inconclusive [inhibitor, full curve] | – |
| CS(=O)(=O)c1cccc(NC(=O)c2ccc(Cl)c(Cl)c2)c1 | inconclusive [inhibitor, single point] | – |

| Compound | Potency | activity, negative = inhibition |
| --- | --- | --- |
| CN(C)c1nc(OCCNC(=O)Nc2ccccc2)nc(N2CCCCC2)n1 | active: 0.891 µM | – |
| CCCNC(=O)C1CC(=O)N(c2ccc(OCC)cc2)C1 (stereo not given) | – | inactive: 13.6% |
| COC1=C[C@@H](C)C2CC3OC(=O)C[C@H]4C(C)=C(OC)C(=O)C([C@@]2(C)C1=O)[C@@]34C (stereo not given in full) | – | inactive: 4.02% |
| Cc1ccc(C)c(N2CCN(C(=O)c3ccc(CSc4nc5ccncc5[nH]4)cc3)CC2)c1 | inconclusive [inhibitor, single point] | – |
| CC(=O)NC(=S)Nc1ccc2oc(=O)ccc2c1 | active: 8.91 µM | – |
| CC(C)OC(=O)/C(C#N)=C/c1c[nH]c2ccccc12 | inconclusive [inhibitor, single point] | – |
| O=C(N/N=C/c1cn(Cc2ccccc2)c2ccccc12)c1ccncc1 | active: 14.1 µM | – |
| Cc1[nH]c2ccccc2c1C(=O)CSc1ccc(Cl)cc1 | inconclusive [inhibitor, single point] | – |
| CC(=O)Nc1ccc(S(=O)(=O)N2CCN(c3cc4c(cc3[N+](=O)[O-])n(C)c(=O)n4C)CC2)cc1 | – | inactive: -3.63% |
| CC1CCN(C(=S)c2cn(Cc3ccc(F)cc3)c3ccccc23)CC1 | inconclusive [inhibitor, partial curve] | – |
| Cn1c(=O)[nH]c(=O)c2c1nc(N(CCO)Cc1ccccc1)n2Cc1ccccc1Cl | inconclusive [inhibitor, partial curve] | – |
| Cc1cc(=O)[nH]c(Nc2ccc(C(=O)OC(C)C)cc2)n1 | – | inactive: -13.9% |
| CCOC(=O)c1c(NC(=O)c2ccccc2Cl)sc2c1CCc1ccccc1-2 | inconclusive [inhibitor, partial curve] | – |
| COc1ccc(CN2CCC(CO)(Cc3ccccc3)CC2)cc1Cn1cccn1 | inconclusive [inhibitor, single point] | – |
| O=c1[nH]c2cc3c(cc2cc1CN(CC1CCCO1)S(=O)(=O)c1ccc(Cl)cc1)OCCO3 (stereo not given) | inconclusive [inhibitor, single point] | – |
| CCCCN(C(C)=O)c1c(N)n(CCC)c(=O)n(CC(=O)Nc2cc(Cl)cc(Cl)c2)c1=O | – | inactive: 5.18% |
| CC1CCCN(C(=S)Nc2ccc(Nc3ccccc3)cc2)C1 (stereo not given) | inconclusive [inhibitor, partial curve] | – |
| COc1ccc2[nH]c(C)c(CN3CCCCC3)c(=O)c2c1 | inconclusive [inhibitor, single point] | – |
| Cc1cccc2nc(CSc3ccccc3C(=O)O)cn12 | – | inactive: -9.6% |
| O=Cc1c(Cl)cccc1Cl | active: 14.1 µM | – |
| CC(C)Cc1nc(N2CCN(C(=O)C(C)C)CC2)c(C#N)c2c1CCC2 | inconclusive [inhibitor, partial curve] | – |
| Cc1cccc(N2CCN(C(=O)c3cccc(N4C(=O)C5CC=CC(C)C5C4=O)c3)CC2)c1C (stereo not given) | – | inactive: -3.81% |
| CC1(C)CC(=O)c2cc(OCC(=O)N3CCOCC3)ccc2O1 | inconclusive [inhibitor, partial curve] | – |
| COC(=O)c1cc(C(=O)OC)cc(N2C(=O)CC(Sc3nc(C)cc(C)n3)C2=O)c1 (stereo not given) | active: 12.6 µM | – |
| CCOC(=O)N1CCN(CC(=O)c2ccc3c(c2)CCN3)CC1 | inconclusive [inhibitor, single point] | – |

| Compound | Potency | activity, negative = inhibition |
| --- | --- | --- |
| CS(=O)(=O)Nc1cccc(-c2ccc3ncnc(Nc4ccc(F)cc4)c3c2)c1 | – | inactive: 14.3% |
| Cc1ccc(C(=O)NCCNS(=O)(=O)c2ccccc2)cc1 | – | inactive: -6.04% |
| c1ccc(COc2cccc(CNCc3ccccn3)c2)cc1 | inconclusive [inhibitor, single point] | – |
| O=C(Nc1ccccc1C(=O)O)c1ccc2ccccc2n1 | inconclusive [inhibitor, single point] | – |
| N#C/C(=C\c1ccc(OCc2ccccc2)cc1)C(=O)Nc1nc2c(s1)CCN(Cc1ccccc1)C2 | inconclusive [inhibitor, single point] | – |
| Cc1cc(C)c(S(=O)(=O)N(C)c2ccccc2)c(C)c1 | – | inactive: 5.9% |
| O=c1c2cc(Br)cc(Br)c2oc2nc3n(c(=O)c12)CCCS3 | inconclusive [inhibitor, single point] | – |
| Oc1ccccc1N1CCN(CC(O)COCc2ccccc2Cl)CC1 (stereo not given) | inconclusive [inhibitor, single point] | – |
| CCCCN(C)C(=O)CCCCn1c(=O)[nH]c2cc(OCC)c(OCC)cc2c1=O | inconclusive [inhibitor, single point] | – |
| O=C(CN1CCCC1)NC12CC3CC(CC(C3)C1)C2 | inconclusive [inhibitor, single point] | – |
| COc1ccc(NC2=C(NCCO)C(=O)c3ccccc3C2=O)cc1 | active: 11.2 µM | – |
| CC1CCN(C(=S)Nc2ccc3nc4n(c(=O)c3c2)CCCCC4)CC1 | inconclusive [inhibitor, partial curve] | – |
| O=C(CSc1nnc(SCc2cccc3ccccc23)s1)c1ccc2c(c1)OCO2 | active: 0.398 µM | – |
| CCn1c(-c2ccco2)n[nH]c1=S | – | inactive: -4.95% |
| Cc1c(C(=O)Nc2ccccc2)oc2c1C(=O)CC(C)(C)C2 | inconclusive [inhibitor, partial curve, poor fit] | – |
| O=C(CN(Cc1ccccc1)S(=O)(=O)c1ccc(Br)cc1)NCc1ccco1 | active: 12.6 µM | – |
| CC1CCN(C(=S)NC(=O)c2ccccc2)CC1 | – | inactive: -7.8% |
| Cc1ccc(OC/C(O)=C(\C#N)c2nc3ccccc3s2)cc1 | – | inactive: 1.33% |
| CCOC(=O)c1sc(NC(=O)c2ccccc2)cc1C | inconclusive [inhibitor, single point] | – |
| O=C(O)/C=C/C(=O)Nc1ccc(OC(F)(F)F)cc1Br | inconclusive [inhibitor, single point] | – |
| CCOC(=O)C1C(c2cccc(F)c2)NC(=S)NC1(O)C(F)(F)F (stereo not given) | inconclusive [inhibitor, single point] | – |
| CN(CC1COc2ccccc2O1)C(=S)NC1CCCCC1 (stereo not given) | inconclusive [inhibitor, single point] | – |
| O=C(COc1c(Cl)cccc1Cl)NN1C(=O)CSC1=S | inconclusive [inhibitor, full curve] | – |
| COc1cccc2cc(C(=O)NCCC3=CCCCC3)c(=O)oc12 | active: 10 µM | – |
| CCCCN(CC)S(=O)(=O)c1ccc(C(=O)N=c2sc3cc(NC(C)=O)ccc3n2C)cc1 | inconclusive [inhibitor, partial curve] | – |
